Here are results for four compounds from PMC10360995, “Discovery of 3-((3-amino-1H-indazol-4-yl)ethynyl)-N-(4-((4-ethylpiperazin-1-yl)methyl)-3-(trifluoromethyl)phenyl)benzamide (AKE-72), a potent Pan-BCR-ABL inhibitor including the T315I gatekeeper resistant mutant” (Journal of Enzyme Inhibition and Medicinal Chemistry, 2023).

A word on the IC50: it is the concentration that inhibits the measured activity by half.

Assay [1] deals with T1, BCR-ABL^T315I (Homo sapiens, UniProt P00519, T315I). Kind of assay: biochemical. The source says:
. Meanwhile, both 4a and 4b surpassed the potency of lead indazoles II and I towards BCR-ABL^T315I with 8–11, and about two times, respectively. […] . […] . [table]

Assay [2] has as its target T1, BCR-ABL^T315I. Conditions: cited from earlier work.
For assay [3], the system named is Ba/F3 cells expressing BCR-ABL^T315I. Kind of assay: Cellular proliferation assay. In kind it is cell-based. Conditions: Mus musculus, BaF3, read-out: GI50 Ba/F3 (Bcr-Abl^T315I). The text has this:
We also tested AKE-72 against BCR-ABL-positive and BCR-ABL-negative cell lines.
1.8. Cytochrome P450 Assay
The binding site was defined based

Where two headings read alike, the source gives them in different places.

With `CN1CCN(Cc2ccc(C(=O)Nc3cccc(C#Cc4cccc5[nH]nc(N)c45)c3)cc2C(F)(F)F)CC1` [Compound 4a], the 50% inhibitory concentration (IC50) against BCR-ABL^T315I [1] is 0.096 ± 0.00147 µM. For the same compound, the “fold potency towards BCR-ABL^T315I versus lead indazole I” value on BCR-ABL^T315I [1] (relative to I) is recorded as “about two”.
On to `Nc1n[nH]c2cccc(C#Cc3cccc(NC(=O)c4ccc(N5CCOCC5)c(C(F)(F)F)c4)c3)c12` [I, reference compound], for which the IC50 on BCR-ABL^T315I [2] is 0.227 ± 0.044 µM.
In the case of `CCN1CCN(Cc2ccc(NC(=O)c3cccc(C#Cc4cccc5[nH]nc(N)c45)c3)cc2C(F)(F)F)CC1` [Compound 5, 3-((3-amino-1H-indazol-4-yl)ethynyl)-N-(4-((4-ethylpiperazin-1-yl)methyl)-3-(trifluoromethyl)phenyl)benzamide], on BCR-ABL^T315I [1], the IC50 was determined as 0.009 ± 0.00314 µM. Also, the “fold more potent towards BCR-ABL^T315I than 4b” value at BCR-ABL^T315I [1] (relative to 4b) worked out at 16 folds. In addition, on BCR-ABL^T315I [1] (relative to I), the “fold more potent towards BCR-ABL^T315I than lead I” value is 25 folds. The GI50 in assay [3] was 0.29 ± 0.036 µM.
`CCN1CCN(Cc2ccc(C(=O)Nc3cccc(C#Cc4cccc5[nH]nc(N)c45)c3)cc2C(F)(F)F)CC1` [Compound 4b] returned a half-maximal inhibitory concentration (IC50) on BCR-ABL^T315I [1] of 0.142 ± 0.0189 µM. In addition, at BCR-ABL^T315I [1] (relative to I), the “fold potency towards BCR-ABL^T315I versus lead indazole I” value is reported as “about two”.
